Measured values: the supplement of paper PMC10126150
Sequences with one replicate were seen in a single cluster, so their values are uncertain.

Tested on: ATP
Assay: switch fluorescence ratio, 500 uM ATP over buffer (Cy3 cluster intensity, sum of 5 cycles each) (fold (ratio)); higher = stronger signal-on switching upon ATP binding; sequences stand for … in TCGTCGGCAGCGTCAGATGTGTATAAGAGACAGTTTTTTTTTTTTTTTTTTTTTTTTT…TC
Settings: aptamer strand: ATP DNA aptamer (quencher-CACCTGGGGGAGTATTGCGGAGGAAGG + anchor), 100 nM annealed; ATP concentration: 500 uM; one replicate
Procedure, shortened: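 Imaging in selection buffer was followed by imaging after 15 min with 500 uM ATP at 22 °C, for Cy3-labelled switching-strand clusters annealed to 100 nM quencher-labelled ATP aptamer on a modified Illumina MiSeq flow-cell. Five of these buffer/ATP cycles ran, separated by NaOH stripping and re-annealing. The fluorescence ratio per cluster is summed target-cycle over summed buffer-cycle Cy3 intensity, averaged per switch-domain sequence; clusters outside 100-1000 RFU were removed.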
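Also: ATP exposure 15 min at 22 °C before imaging.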

Row | Sequence | switch fluorescence ratio
1 | TATTTTTCGT | 0.998
2 | TTCACGTTAC | 1.54
3 | AGAGGCAGGC | 1.05
4 | GTAACGAGAT | 1.07
5 | CGCTGTATTA | 0.999
6 | GCAACCGCAG | 1.22
7 | TACCTCTGAA | 1.03
8 | TAGGTACGTG | 1.05
9 | ACAGTGACCT | 1.3
10 | AGTCTCGCTC | 1.02
11 | GCCTGTAGGG | 1.01
12 | AAAGTCTTGG | 0.97
13 | TTGTTATCTG | 1.02
14 | GACCCTCCCT | 1.1
15 | CACGGGTATG | 0.997
16 | CAGAAAAGTG | 1.04
17 | CAAGTTGAAT | 1.01
18 | ATTGTTACCC | 1.01
19 | TTTGGGCCTA | 1.03
20 | CGCAACTAGT | 1.42
21 | ACTAGGACGG | 1.02
22 | CACCTTTTTT | 1.01
23 | GACGCTGCGG | 0.989

Row | Sequence | switch fluorescence ratio
24 | ATTGACGGCC | 1.05
25 | CCGGTATGC | 2.78
26 | TATGTAGATC | 1.01
27 | CAGTTCGTC | 0.969
28 | CCGAGGAGTG | 1.06
29 | TGTAAATCAT | 0.986
30 | TTTTTGACGC | 0.98
31 | TTTCCCTTGG | 1.03
32 | TCGTGCAGCA | 1.02
33 | GATGCATCAT | 1.03
34 | GAAGCGCCTC | 1.05
35 | GGGATATGTC | 0.868
36 | TGGGCTCGCT | 1
37 | GGTGTCACCA | 1.04
38 | CGGCGCCGGT | 0.966
39 | GCTTGAAAGA | 1.02
40 | GCTTTCGACG | 1.07
41 | CTATCCGGGC | 1.15
42 | GGCTCGTGGG | 1.03
43 | TTATAAAGGG | 1.02
44 | TCAGCACCGG | 1.04
45 | ATACTAGGCT | 0.948
46 | CGCCATGTTA | 1.02

Row | Sequence | switch fluorescence ratio
47 | AGGTGTTCTT | 0.998
48 | CTACGCCACG | 1.53
49 | TCACCGTGAG | 1.08
50 | TAATGGTCTC | 1
51 | AACGGCCTGA | 1.03
52 | CCAGAGGTGC | 1.76
53 | ATAATTTCTC | 0.977
54 | ACGAGGAATG | 1.07
55 | ACAAATGGAT | 1.05
56 | CTTGGACGTA | 1.13
57 | ATCAGCATTT | 1.05
58 | ACCCCCTCGG | 1.5
59 | GTATCAGTTC | 1.04
60 | CATAACGTAT | 1.01
61 | TTTAAGTCG | 1.02
62 | AGAGACGAGT | 1.06
63 | TTTTTCTGGC | 0.942
64 | CGTGTTTCCC | 1.01
65 | ATCAAACGC | 1.01
66 | GGTCCGGGCA | 0.98
67 | CGGACATGTG | 0.984
68 | TGTCTGCATC | 1.51
69 | TAGCGAAGGG | 1

Row | Sequence | switch fluorescence ratio
70 | GGGGAATAG | 1.02
71 | CATGTTCCG | 0.986
72 | CAAGACTATA | 1
73 | ACATATCGCA | 1.09
74 | CTAACGTCCA | 1.09
75 | TCACACGTAC | 1.86
76 | CATCTTGATT | 0.955
77 | GAATATTCTG | 0.974
78 | TAGCAACGG | 1.07
79 | CTTTGGGTGC | 1.07
80 | CAATAGTACG | 0.986
81 | CACTGCTAAA | 1.2
82 | TCTTTACGTT | 0.989
83 | CCACCTGAGC | 1.09
84 | CGCTAGGGA | 1.02
85 | TCGTGTTTGC | 0.996
86 | CCTAGGCCAC | 1.77
87 | AGTGTGTAAG | 0.993
88 | TTGTAATAAC | 1.07
89 | TGTGAGAAAT | 1.04
90 | GCCGATATTT | 1.05
91 | GGACTGTAAG | 0.996
92 | GGTTTCACGT | 0.977

Row | Sequence | switch fluorescence ratio
93 | GGGAGGAGAA | 1.05
94 | AGACACTCTT | 0.95
95 | TAATGGGAT | 0.96
96 | CAGTCCGTTG | 1.05
97 | GTCGTACATT | 0.967
98 | CGGCCCGGCC | 1.02
99 | CAAGGGTGTA | 1.05
100 | TGTTCTGATA | 0.996
101 | CGCGCTTGTC | 1.12
102 | AATGAAGTCA | 1
103 | CGACGAAGGT | 1.13
104 | GTGTGGTATG | 0.972
105 | ACGCGGCTGG | 1.02
106 | CCGTAGGGC | 1.42
107 | ACTCGGTATG | 1.01
108 | AAGCCTGATA | 1
109 | GATATGCGGT | 0.995
110 | CAGAGTTGG | 1
111 | CAGGCTTGGG | 1.04
112 | TTCTGTGG | 0.974
113 | TTTGTCTGGG | 1.01
114 | AGTATAAGTA | 0.958
115 | AAGTATTGGG | 1.02

Row | Sequence | switch fluorescence ratio
116 | GAAGAGGAGA | 0.984
117 | GACGGATTAT | 0.979
118 | TTGCCTTAGA | 0.975
119 | CAAGGAGTTG | 0.997
120 | GGAGCCGTCA | 0.989
121 | AGTGGCCCAG | 0.971
122 | GGGGACACTG | 1.1
123 | TAGAGCTCCA | 1.02
124 | GCAGCTCCG | 1.05
125 | TTGCAATTCT | 1.59
126 | TGAAGGTG | 1.33
127 | AATCCAGTCA | 1.01
128 | TACAGCGTGA | 1.09
129 | GTTGGGGCAC | 0.991
130 | TTGTTAGCA | 1.16
131 | TTTGACTAGC | 0.991
132 | ATGAAAATCG | 1.01
133 | GTAATAAGCA | 1.06
134 | GATCCACCCA | 1.05
135 | CGTATTTCTC | 1.04
136 | TACTTCCGGG | 1.41
137 | TCGTTGTCAC | 0.955
138 | TTCCATAGTC | 1.01

Row | Sequence | switch fluorescence ratio
139 | TTTTAGTTGA | 0.974
140 | CCGGGTATCT | 1.13
141 | GTTTCCTATG | 1.03
142 | ACGTTGGCTA | 2.02
143 | GACGATTGGC | 0.977
144 | TAATTGAACT | 1.02
145 | TGTGGACTGC | 0.962
146 | AGTTATGCAG | 1.08
147 | GACCCAGTAT | 1.09
148 | AACTTACCCA | 1.18
149 | CACATCTGCC | 1.08
150 | TACAAACTAA | 1.08
151 | CATCGGTTGC | 1.09
152 | GTCGCGGTCG | 0.997
153 | CGGGCGAACA | 0.975
154 | AAGATGCCCA | 1.02
155 | GTGGGTGTTG | 1.02
156 | ATCAACTCTG | 1.02
157 | CAGGGCTTTA | 0.953
